Most values come without repeats; read them as rough.
Legend:
CHO-K1 [1] = assay: relative survival (nuclei to bead ratio vs DMSO control) (% of vehicle control); higher = more surviving cells
Method: (§1)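 Flow-cytometric in vitro micronucleus assay (Litron MicroFlow) in CHO-K1 cells in 96-well plates, 19 concentrations (4.5-200 µM, n=1 per concentration). Without S9, cells were exposed for 24 h and sampled at 48 h. With Aroclor 1254-induced rat liver S9, cells were exposed for 3-4 h and sampled at 27-28 h. Read-outs are %MN and %hypodiploid nuclei relative to nucleated events, and relative survival as the nuclei-to-bead ratio versus the 1% DMSO vehicle control (x100).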

CHO-K1 [2] = assay: hypodiploid nuclei frequency (% of nucleated events); higher = more hypodiploid events (aneugenic)
Method: as §1

CHO-K1 [3] = assay: micronucleus frequency (% of nucleated events); higher = more micronuclei (genotoxic)
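For hypodiploid nuclei frequency (% of nucleated events) in this document: hypodiploid nuclei gated on a flow cytometer with 488 nm excitation after SYTOX Green staining, cultures at 37 °C, positive controls vinblastine without S9 and cyclophosphamide with S9.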
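For micronucleus frequency (% of nucleated events) in this document: cells lysed with nuclei stained by SYTOX Green, then micronucleus-gated events counted against nucleated events by flow cytometry with 488 nm excitation.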
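For relative survival (nuclei to bead ratio vs DMSO control) in this document: Lysed-cell nuclei stained with SYTOX Green and counted against counting beads by flow cytometry at 488 nm excitation, with vinblastine (no S9) and cyclophosphamide (plus S9) as positive controls.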

Cc1c(C(=O)O)c(O)cc2c1C(=O)c1c(O)c([C@@H]3O[C@H](CO)[C@@H](O)[C@H](O)[C@H]3O)c(O)c(O)c1C2=O [Carminic acid]
Settings | hypodiploid nuclei frequency, CHO-K1 [2] [%] | micronucleus frequency, CHO-K1 [3] [%] | relative survival, CHO-K1 [1]
concentration: 4.5 (µM), S9 metabolic activation: with S9, exposure time: 3-4 hours | 0.2 | 1.36 | 55.5
concentration: 4.5 (µM), S9 metabolic activation: without S9, exposure time: 24 hours | 0.7 | 1.92 | 107
concentration: 5.63 (µM), S9 metabolic activation: with S9, exposure time: 3-4 hours | 0.22 | 1.42 | 61.5
concentration: 5.63 (µM), S9 metabolic activation: without S9, exposure time: 24 hours | 0.84 | 1.78 | 96.4
concentration: 7.04 (µM), S9 metabolic activation: with S9, exposure time: 3-4 hours | 0.26 | 2.42 | 68.8
concentration: 7.04 (µM), S9 metabolic activation: without S9, exposure time: 24 hours | 0.86 | 1.92 | 107
concentration: 8.8 (µM), S9 metabolic activation: with S9, exposure time: 3-4 hours | 0.18 | 1.38 | 69.6
concentration: 8.8 (µM), S9 metabolic activation: without S9, exposure time: 24 hours | 0.7 | 2.02 | 96.8
concentration: 11 (µM), S9 metabolic activation: with S9, exposure time: 3-4 hours | 0.18 | 1.46 | 71.8
concentration: 11 (µM), S9 metabolic activation: without S9, exposure time: 24 hours | 0.84 | 1.76 | 105
concentration: 13.7 (µM), S9 metabolic activation: with S9, exposure time: 3-4 hours | 0.26 | 1.92 | 67.3
concentration: 13.7 (µM), S9 metabolic activation: without S9, exposure time: 24 hours | 1.06 | 2.1 | 90.3
concentration: 17.2 (µM), S9 metabolic activation: with S9, exposure time: 3-4 hours | 0.18 | 2.2 | 103
concentration: 17.2 (µM), S9 metabolic activation: without S9, exposure time: 24 hours | 0.92 | 2.04 | 92.9
concentration: 21.5 (µM), S9 metabolic activation: with S9, exposure time: 3-4 hours | 0.3 | 2.04 | 102
concentration: 21.5 (µM), S9 metabolic activation: without S9, exposure time: 24 hours | 2.12 | 1.56 | 96
concentration: 26.8 (µM), S9 metabolic activation: with S9, exposure time: 3-4 hours | 0.12 | 1.88 | 90.9
concentration: 26.8 (µM), S9 metabolic activation: without S9, exposure time: 24 hours | 3.68 | 1.22 | 74.5
concentration: 33.6 (µM), S9 metabolic activation: with S9, exposure time: 3-4 hours | 0.24 | 1.44 | 109
concentration: 33.6 (µM), S9 metabolic activation: without S9, exposure time: 24 hours | 40.8 | 1.48 | 65.2
concentration: 41.9 (µM), S9 metabolic activation: with S9, exposure time: 3-4 hours | 0.18 | 1.58 | 77
concentration: 41.9 (µM), S9 metabolic activation: without S9, exposure time: 24 hours | 2.14 | 1.98 | 104
concentration: 52.4 (µM), S9 metabolic activation: with S9, exposure time: 3-4 hours | 0.08 | 1.54 | 75.7
concentration: 52.4 (µM), S9 metabolic activation: without S9, exposure time: 24 hours | 2.64 | 1.48 | 84
concentration: 65.5 (µM), S9 metabolic activation: with S9, exposure time: 3-4 hours | 0.28 | 1.52 | 67.8
concentration: 65.5 (µM), S9 metabolic activation: without S9, exposure time: 24 hours | 1.2 | 1.38 | 98.6
concentration: 81.9 (µM), S9 metabolic activation: with S9, exposure time: 3-4 hours | 0.24 | 1 | 74.7
concentration: 81.9 (µM), S9 metabolic activation: without S9, exposure time: 24 hours | 1.38 | 2.54 | 106
concentration: 102 (µM), S9 metabolic activation: with S9, exposure time: 3-4 hours | 0.3 | 1.22 | 80.5
concentration: 102 (µM), S9 metabolic activation: without S9, exposure time: 24 hours | 5.4 | 2.2 | 89.9
concentration: 128 (µM), S9 metabolic activation: with S9, exposure time: 3-4 hours | 0.2 | 1.42 | 72.8
concentration: 128 (µM), S9 metabolic activation: without S9, exposure time: 24 hours | – | – | 36.3
concentration: 160 (µM), S9 metabolic activation: with S9, exposure time: 3-4 hours | 0.34 | 1.52 | 84.4
concentration: 160 (µM), S9 metabolic activation: without S9, exposure time: 24 hours | 2.48 | 2.04 | 87.8
concentration: 200 (µM), S9 metabolic activation: with S9, exposure time: 3-4 hours | 0.28 | 1.5 | 95.9
concentration: 200 (µM), S9 metabolic activation: without S9, exposure time: 24 hours | 2.92 | 2.9 | 95.3

Reference: the supplement of paper PMC9151546
